Data on 27 molecules can be found in the antibiotic and cytotoxicity screens of Wong et al. (2023).

The list shows a part of the results.

Test [1] deals with HSkMC (human skeletal muscle cells). Nature of the test: cytotoxicity call (relative viability < 0.9). Conditions: 10 µM.
The test system of test [2] is HepG2. The experiment in a line: cytotoxicity call (relative viability < 0.9). To be noted: 10 µM.
Test [3] deals with S. aureus RN4220. Nature of the test: growth inhibition call (relative growth <= 0.2). To be noted: 50 µM.

On to `CSC1=NCN(CCCO)CN1`, for which the cytotoxicity call in test [1] and in test [2] was “inactive” in each case. Moreover, the growth inhibition call in test [3] is “inactive”.

As to `CC(C)NC(=O)Nc1ccc2c(c1)C(=O)N([C@@H](C)CO)C[C@@H](C)[C@H](CN(C)C(=O)Nc1ccc(C(F)(F)F)cc1)OCCCC[C@H](C)O2`, the cytotoxicity call in test [1] and in test [2] was “inactive” throughout. For the same molecule, the growth inhibition call in test [3] was “inactive”.

Turning to `C[C@@H]1CCCCO[C@@H](CN(C)S(=O)(=O)c2ccc(F)cc2)[C@H](C)CN([C@@H](C)CO)C(=O)c2cc(NC(=O)Nc3cccc4ccccc34)ccc2O1`, the cytotoxicity call in test [1] and in test [2] was “inactive” each time. For the same molecule, the growth inhibition call in test [3] was “inactive”.

For `O=C(C[C@H]1CC[C@H]2[C@@H](COC[C@H](O)CN2C(=O)Nc2cccc(F)c2)O1)NCc1ccccc1Cl`, the cytotoxicity call in test [1] and in test [2] was “inactive” throughout. Further, in test [3], the growth inhibition call was “inactive”.

As for `C[C@@H]1CN([C@H](C)CO)C(=O)c2ccccc2-c2ccccc2CO[C@@H]1CN(C)Cc1ccc(Oc2ccccc2)cc1`, the cytotoxicity call in test [1] and in test [2] was “inactive” each time. Moreover, the growth inhibition call in test [3] was “inactive”.

On to `COc1ccc(S(=O)(=O)Nc2ccc3c(c2)C(=O)N([C@@H](C)CO)C[C@H](C)[C@H](CN(C)Cc2ccc(Cl)c(Cl)c2)OCCCC[C@@H](C)O3)cc1`, for which the cytotoxicity call in test [1] and in test [2] was “active” throughout. Also, in test [3], the growth inhibition call was “inactive”.

Regarding `C[C@@H]1CCCCO[C@H](CN(C)C(=O)c2ccccc2)[C@H](C)CN([C@H](C)CO)C(=O)c2cc(NC(=O)C3CCCCC3)ccc2O1`, the cytotoxicity call in test [1] and in test [2] was “inactive” in each case. The growth inhibition call in test [3] was “inactive”.

For the molecule `O=[N+]([O-])c1cc(N(CCO)CCO)ccc1NCCO`, the cytotoxicity call in test [1] and in test [2] was “inactive” in each case. The growth inhibition call in test [3] was “inactive”.

`COc1ccc(S(=O)(=O)Nc2ccc3c(c2)C(=O)N([C@@H](C)CO)C[C@@H](C)[C@H](CN(C)S(C)(=O)=O)OCCCC[C@@H](C)O3)cc1`: the cytotoxicity call in test [1] and in test [2] was “inactive” in each case. For the same molecule, the growth inhibition call in test [3] was “inactive”.

With `C[C@@H]1CN([C@@H](C)CO)C(=O)c2cc(NC(=O)Nc3ccc(F)cc3)ccc2O[C@@H]1CN(C)Cc1ccc(C(F)(F)F)cc1`, the cytotoxicity call in test [1] and in test [2] was “active” each time. The growth inhibition call in test [3] is “inactive”.

Take `C[C@@H]1CCCCO[C@H](CN(C)S(=O)(=O)c2ccc(Cl)cc2)[C@@H](C)CN([C@H](C)CO)C(=O)c2cc(NC(=O)c3ccncc3)ccc2O1`: the cytotoxicity call in test [1] and in test [2] was “inactive” in each case. In test [3], the growth inhibition call was “inactive”.

As for `C[C@H](CO)N1C[C@H](C)[C@@H](CN(C)CC2CCCCC2)OCCCC[C@H](C)Oc2ccc(NC(=O)Cc3ccccc3)cc2C1=O`, the cytotoxicity call in test [1] and in test [2] was “inactive” each time. Also, the growth inhibition call in test [3] is “inactive”.

Consider `N[C@H](C(=O)O)[C@@H](O)C(=O)O`, for which the cytotoxicity call in test [1] and in test [2] was “inactive” each time. In test [3], the growth inhibition call is “inactive”.

As for `O=C(NCCN1CCOCC1)c1cccs1`, the cytotoxicity call in test [1] and in test [2] was “inactive” throughout. Also, in test [3], the growth inhibition call is “inactive”.

For `O=C(Cn1cc(COc2ccc(-n3cccc3)cc2)nn1)NS(=O)(=O)c1cccc(OC(F)F)c1`, the cytotoxicity call in test [1] and in test [2] was “inactive” in each case. In test [3], the growth inhibition call is “inactive”.

As to `C[C@@H]1CCCCO[C@H](CN(C)C(=O)c2ccncc2)[C@H](C)CN([C@@H](C)CO)C(=O)c2cc(NS(=O)(=O)c3ccc(Cl)cc3)ccc2O1`, the cytotoxicity call in test [1] and in test [2] was “inactive” throughout. In addition, in test [3], the growth inhibition call was “inactive”.

With `CCCNC(=O)Nc1ccc2c(c1)C(=O)N(C)C[C@H](OC)[C@H](C)CN(Cc1ccc(-c3ccccn3)cc1)[C@H](C)CO2`, the cytotoxicity call in test [1] and in test [2] was “inactive” in each case. Moreover, the growth inhibition call in test [3] was “inactive”.

Turning to `C[C@@H]1CN([C@@H](C)CO)C(=O)c2cccc(NC(=O)c3nc4ccccc4s3)c2O[C@@H]1CN(C)S(=O)(=O)c1cn(C)cn1`, the cytotoxicity call in test [1] and in test [2] was “inactive” each time. In addition, the growth inhibition call in test [3] was “inactive”.

As for `Cc1noc(C)c1S(=O)(=O)N(C)C[C@@H]1OCc2cn(nn2)CCCC(=O)N([C@H](C)CO)C[C@H]1C`, the cytotoxicity call in test [1] and in test [2] was “inactive” throughout. For the same molecule, in test [3], the growth inhibition call is “inactive”.

For `COc1ccc(S(=O)(=O)Nc2ccc3c(c2)C(=O)N([C@H](C)CO)C[C@H](C)[C@@H](CN(C)CC2CC2)O3)cc1`, the cytotoxicity call in test [1] and in test [2] was “inactive” throughout. The growth inhibition call in test [3] was “inactive”.

Turning to `Cc1noc(C)c1NC(=O)N(C)C[C@@H]1OCCCC[C@H](C)Oc2ccc(NS(=O)(=O)c3cccs3)cc2C(=O)N([C@H](C)CO)C[C@@H]1C`, the cytotoxicity call in test [1] and in test [2] was “inactive” each time. Moreover, in test [3], the growth inhibition call was “inactive”.

`C[C@H]1CCCCO[C@H](CN(C)C(=O)Nc2ccc(C(F)(F)F)cc2)[C@@H](C)CN([C@@H](C)CO)C(=O)c2cc(NC(=O)Nc3ccc(C(F)(F)F)cc3)ccc2O1`: the cytotoxicity call in test [1] is “inactive”. Also, the cytotoxicity call in test [2] was “active”. The growth inhibition call in test [3] is “inactive”.

In the case of `O=C1O[C@H](c2ccccc2)[C@H](c2ccccc2)N2[C@H]1[C@@H](C(=O)N1CCCCCCC1)[C@]1(C(=O)Nc3ccc(C#CC4(O)CCCCCC4)cc31)[C@H]2c1ccc(OCCO)cc1`, the cytotoxicity call in test [1] and in test [2] was “inactive” throughout. Besides, the growth inhibition call in test [3] is “inactive”.

`Cc1noc(C)c1S(=O)(=O)Nc1ccc2c(c1)C(=O)N([C@H](C)CO)C[C@H](C)[C@@H](CN(C)C(=O)NC(C)C)O2`: the cytotoxicity call in test [1] and in test [2] was “inactive” in each case. Further, in test [3], the growth inhibition call is “inactive”.

For `C[C@@H]1CN([C@@H](C)CO)C(=O)c2cccc(NC(=O)C3CCCCC3)c2O[C@@H]1CN(C)S(=O)(=O)c1cn(C)cn1`, the cytotoxicity call in test [1] and in test [2] was “inactive” in each case. For the same molecule, the growth inhibition call in test [3] was “inactive”.

`NCCCCC(NC(CCc1ccccc1)C(=O)O)C(=O)N1CCCC1C(=O)O` (stereo unspecified): the cytotoxicity call in test [1] and in test [2] was “inactive” in each case. Besides, the growth inhibition call in test [3] is “inactive”.

As to `C[C@H](CO)N1C[C@H](C)[C@@H](CN(C)Cc2ccc(C(F)(F)F)cc2)Oc2c(NC(=O)Nc3ccc(F)cc3)cccc2C1=O`, the cytotoxicity call in test [1] was “inactive”. Further, the cytotoxicity call in test [2] is “active”. For the same molecule, the growth inhibition call in test [3] is “inactive”.
